Test results published in PubChem BioAssay AID1508623 (National Center for Advancing Translational Sciences (NCATS), 2021).
The whole screen tested about 48,000 compounds, of which about 450 (0.94%) were called active. Not shown: some 19% with an inconclusive outcome. Calls come from the whole dose curve; as a rule, active = well fitted inhibition curve with a large enough effect; inconclusive = small, poorly fitted or top-dose-only effect; inactive = no such curve, though single readings can be large or run the other way. The list shows a part of the results.

Test: Primary qHTS for Identification of Small Molecule Inhibitors of Huntingtin Promoter Activity; note: nearly all actives have a fitted effect of over 50% in size
Conditions: HEK293 HTT promoter firefly luciferase reporter (activity 0% = vehicle and -100% = no light), 24 h; series mostly up to 57.5 µM; activity change, negative = inhibition: at the top concentration
Method in brief: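 Firefly luciferase signal from promoter-reporter HEK293 cells was scaled between vehicle (0%) and zero RLU (-100%). Compounds were tested at final concentrations of up to 57.5 uM over 24 h at 37 degrees C. PTC124 at 50 uM final served as control inhibitor.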

Activity change, negative = inhibition, inactive:
CCOC(=O)c1c(NC(=O)c2cc(-c3ccc(Cl)cc3)on2)sc2c1CCCC2 -3.23%, CC(C)CCNC(=O)c1cn(C)c2ccc(S(=O)(=O)N3CCCC3)cc2c1=O -9.06% [at 11.5 µM], Cc1ccccc1OCc1cc(=O)n2c(-c3ccccc3)csc2n1 6.96%, CCC(=O)N1CCc2cc(Br)cc(S(=O)(=O)N3CCC(C(=O)N(CC)CC)CC3)c21 -2.3%, CCn1cc(C(=O)N2CCN(c3cc(Cl)ccc3C)CC2)c(=O)c2cc(S(=O)(=O)N3CCOCC3)ccc21 -16.4%, CCC1CCCCN1CCCNC(=O)c1[nH]c2ccccc2c1Sc1ccc(Cl)cc1 (stereo not given) -27.3%, CCOc1ccc(C(c2c(O)cc(C)n(CCOC)c2=O)N2CCN(c3ccccc3)CC2)cc1 (stereo not given) -4.32%, COc1cccc(CNC(=O)C(CC(C)C)NS(=O)(=O)c2ccc3c(c2)oc(=O)n3C)c1 (stereo not given) -11.3%, Cc1c2cnn(CC(=O)N3CCCCC3)c(=O)c2c(C)n1Cc1ccc(F)cc1 -0.115%, CCN(C(=O)CCS(=O)(=O)c1cc2[nH]c(=O)c(=O)[nH]c2cc1C)c1ccccc1 2.05%, Cc1ccc2c(c1)C(=O)OC(C(=O)Nc1ncc(Cc3ccc(C(C)C)cc3)s1)C2 (stereo not given) -3.34%, Cc1ccc2sc(N3CCN(C(=O)CCS(=O)(=O)c4ccc(Cl)cc4)CC3)nc2c1C 0%, CCCN(CCC)C(=O)Cn1c(=O)n(-c2cccc(OC)c2)c(=O)c2c(C)c(C(=O)N(C)C)sc21 3.95%, Cc1ccc(N(CC(=O)N2CCN(c3ccc(Cl)cc3)CC2)S(=O)(=O)c2c(C)nn(C)c2C)cc1 -12.9%, CCC(Sc1nc2ncccc2[nH]1)C(=O)Nc1cccc(OC)c1 (stereo not given) -20.5%, COc1ccccc1CNC(=O)C1CCCN(C(=O)c2cnn(-c3ccc(F)cc3)c2-n2cccc2)C1 (stereo not given) -29.8%, Cc1ccc(NC(=O)C(Cc2ccccc2)n2cccc2)cc1 (stereo not given) -2.68%, COCCCn1c(=O)c2sccc2n2c(CCCC(=O)Nc3cc(C)cc(C)c3)nnc12 -14.6%, CC(C)(Oc1ccc(CCNC(=O)c2ccc(Cl)cc2)cc1)C(=O)O 12.4%, COc1ccc(CNC(=O)Cn2ncc3c4ccccc4n(Cc4cccc(Cl)c4)c3c2=O)cc1 -7.96%, CN1CCc2c(sc3c2C(=O)NC(c2ccc(OC(=O)c4ccccc4)cc2)N3)C1 (stereo not given) 87.1%, Cc1ccc(C)c(S(=O)(=O)c2cn(C)c3cc(N4CCCCC4C)c(F)cc3c2=O)c1 (stereo not given) -1.52%, c1ccc(CC2=NCCN2)cc1 18.1%, Cc1cccc(-c2nc3c4ccccc4nc(N4CCN(c5ccccc5F)CC4)n3n2)c1 0.334%, Cc1ccc(CNC(=O)NCc2noc3ccc(C)cc23)cc1 -3.14%, Cn1c(=O)c2c(-c3ccc(Cl)cc3)n(Cc3ccc(Cl)cc3)cc2n(C)c1=O -10.1%, COC(=O)c1cc2sc(Cl)cc2n1Cc1c(C)cc(C)cc1C -6.73%, COc1ccc(-c2c(C)c3ccc(O)c(CN4CCOCC4)c3oc2=O)cc1 -17.3%, CCn1c2ccccc2c2cc(NC(=O)COc3ccc(C)cc3C)ccc21 0.846%, COc1ccc(OC)c(CNC(=O)c2ccc(C)c(NC(=O)c3nsc4ccccc34)c2)c1 12.5%, CCCCNC(=O)C1CCN(S(=O)(=O)CCC)CC1 -6.4%, Cc1ccc(Cn2c(CNS(=O)(=O)c3cccc([N+](=O)[O-])c3)nc3cccnc32)cc1 -9.82%, COc1ccc(-c2cc(C)no2)cc1S(=O)(=O)Nc1c(C)cc(C)cc1C -29.9%, CCOc1ccc(OCC)c(NS(=O)(=O)c2cc(-c3cnc(C)o3)ccc2OC)c1 -22.2%, COc1ccc(OC)c(NC(=O)c2c(N3CCCC3=O)c3cc(OC)ccc3n2C)c1 -7.39%, CCc1nn2c(=O)cc(COC(=O)c3cccc(NC(=O)c4cccs4)c3)nc2s1 -3.7%, CCOC(=O)c1c(-c2ccccc2)csc1NC(=O)c1cc(=O)c2ccc(C)cc2o1 -2.26% [at 11.5 µM], Cc1ccccc1-n1nc(CO)c(C(=O)NCc2cccnc2)n1 -5.98%, COc1cc(C2NC(=O)c3c(sc4c3CCN(C)C4)N2)cc(Br)c1OC(=O)c1ccc(C)cc1 (stereo not given) -0.585%, CCOC(=O)C1CCN(C(c2ccc(SC)cc2)c2c(O)cc(C)n(Cc3ccco3)c2=O)CC1 (stereo not given) -0.281%, COc1ccc(N2CCN(C(=O)CCn3c(=O)[nH]c4cc(OC)c(OC)cc4c3=O)CC2)cc1 1.65%, Cc1cccc(NC(=O)CCS(=O)(=O)c2cccc3nsnc23)c1C -7.6%, COc1ccccc1N1CCN(c2ncnc3onc(-c4ccc(F)cc4)c23)CC1 -4%, CCOC(=O)CSC1=Nc2ccccc2C2=NC(CCC(=O)NCc3ccc(F)cc3)C(=O)N12 (stereo not given) -12.5%, O=C(NCc1cccc(F)c1)C1CCCN(C(=O)N2CCOc3ccccc32)C1 (stereo not given) -7.03%, CC1CN(C(=O)N2CCC(C(=O)NCc3cccs3)CC2)c2cc(Cl)ccc2O1 (stereo not given) -22.9%, Cc1ccc(C)c(NC(=O)C2CCCN(c3nc4ccccc4s3)C2)c1 (stereo not given) 13.9%, CCc1ccccc1NC(=O)C1CCN(S(=O)(=O)c2ccccc2)CC1 -16.9%, COc1ccc(CNC(=O)C(C)Sc2nc(-c3ccccc3)cc(C(F)(F)F)n2)cc1 (stereo not given) -13.6%, O=C(Cn1ccnc1[N+](=O)[O-])NCc1ccccc1 10.5%, CCCCOc1ccc(C(=O)Nc2ccc3oc(-c4cccnc4)nc3c2)cc1 1.56%, O=C1c2ccccc2C(=O)C1c1ccccc1 2.37%, Cc1ccc(CNC(=O)c2ccc3c(c2)c(C)c(C)n3Cc2ccccc2)o1 -10.6%, O=C(COc1ccccc1Cl)OCc1cc(=O)n2nc(C3CCCCC3)sc2n1 -10.2%, COCCOC(=O)C1=C(C)NC2=C(C(=O)CC(c3ccccc3OC)C2)C1c1cccc(O)c1 (stereo not given) 11.1%, CCn1ccc2cc(S(=O)(=O)N3CCC(C(=O)NCCc4ccccc4Cl)CC3)ccc21 -8.78%, CCc1ccc(C(=O)c2cnc3ccc(F)cc3c2S(=O)(=O)c2ccccc2)cc1 -27.9%, CC(C)OCCCNC(=O)c1cn(C)c2ccc(S(=O)(=O)N3CCCCCC3)cc2c1=O -10.8% [at 11.5 µM], Cc1cccc(C(=O)Nc2ccc(-c3nc4ncccc4o3)cc2C)c1 32.6%, Cc1cccc(S(=O)(=O)c2cn(Cc3ccccc3)c3cc(N4CCOCC4)c(F)cc3c2=O)c1 -20.4%
